From PMC11911400, “Mechanism of ASF1 engagement by CDAN1” (Nature Communications, 2025)
Residue numbers refer to the chain shown, from its start. Results are given in words; binding and its absence hold for the method and conditions named. Binding seen in cells or lysates may run through a third protein. Some entries that bind do so weakly or less than the wild type.

Amino acid sequences for entries named in this document (tags omitted).
UniProt Q9Y294: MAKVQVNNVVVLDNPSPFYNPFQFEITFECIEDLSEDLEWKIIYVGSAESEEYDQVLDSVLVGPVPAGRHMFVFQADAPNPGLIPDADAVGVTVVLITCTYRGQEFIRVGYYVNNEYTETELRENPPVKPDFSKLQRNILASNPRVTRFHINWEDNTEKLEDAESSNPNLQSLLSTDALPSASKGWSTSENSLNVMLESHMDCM

Key:
[1] = biological target: T1, Strep-CDAN1 HMHA1* BDA1* BDA2* (three elements mutated) (human) (UniProt Q8IWY9); assay: pull-down; Strep-Tactin pulldown of transiently transfected ST-CDAN1 variants from Flp-In 293 T-REx lysates; endogenous ASF1A, ASF1B and CDIN1 detected by immunoblotting; IP buffer with 1% Triton X-100, 1 hr at 4 °C
T1 sequence: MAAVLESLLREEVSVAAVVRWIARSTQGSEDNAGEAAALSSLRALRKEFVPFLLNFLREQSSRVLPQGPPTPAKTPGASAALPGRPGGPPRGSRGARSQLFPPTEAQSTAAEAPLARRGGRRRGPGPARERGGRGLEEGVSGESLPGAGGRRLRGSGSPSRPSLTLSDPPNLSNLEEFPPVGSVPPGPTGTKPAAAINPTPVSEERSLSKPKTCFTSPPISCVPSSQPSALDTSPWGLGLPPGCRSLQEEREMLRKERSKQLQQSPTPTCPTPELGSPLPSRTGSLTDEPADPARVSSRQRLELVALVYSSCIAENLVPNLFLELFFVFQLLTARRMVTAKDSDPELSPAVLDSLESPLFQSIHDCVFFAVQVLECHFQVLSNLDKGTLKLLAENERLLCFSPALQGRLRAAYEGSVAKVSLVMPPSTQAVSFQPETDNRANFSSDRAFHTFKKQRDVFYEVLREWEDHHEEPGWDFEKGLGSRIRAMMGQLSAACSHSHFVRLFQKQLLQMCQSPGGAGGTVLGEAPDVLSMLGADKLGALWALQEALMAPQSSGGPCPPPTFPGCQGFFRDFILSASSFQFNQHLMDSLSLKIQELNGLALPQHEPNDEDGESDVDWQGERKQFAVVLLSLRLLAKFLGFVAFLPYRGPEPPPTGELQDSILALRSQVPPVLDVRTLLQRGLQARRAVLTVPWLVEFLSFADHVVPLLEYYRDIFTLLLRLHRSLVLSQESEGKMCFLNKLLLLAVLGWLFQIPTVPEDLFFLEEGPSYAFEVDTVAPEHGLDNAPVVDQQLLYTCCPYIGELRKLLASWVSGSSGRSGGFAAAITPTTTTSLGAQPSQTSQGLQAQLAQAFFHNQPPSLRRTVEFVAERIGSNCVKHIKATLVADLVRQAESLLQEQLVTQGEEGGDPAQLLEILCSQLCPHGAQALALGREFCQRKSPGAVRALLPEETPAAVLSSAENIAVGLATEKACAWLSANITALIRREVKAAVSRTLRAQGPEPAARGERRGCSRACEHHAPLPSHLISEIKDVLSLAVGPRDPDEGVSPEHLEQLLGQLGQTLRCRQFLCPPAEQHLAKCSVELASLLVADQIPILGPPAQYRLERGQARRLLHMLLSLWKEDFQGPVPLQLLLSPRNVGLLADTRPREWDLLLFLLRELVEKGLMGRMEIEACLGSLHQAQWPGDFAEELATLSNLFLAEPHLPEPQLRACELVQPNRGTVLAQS

[2] = biological target: T2, Strep-CDAN1 BDA1* (M824A/R825A/K826A) (human) (UniProt Q8IWY9); assay: as above
T2 sequence: T1 sequence with A194S, A195R, A196R, A541R, A544R, A548R

[3] = biological target: FLAG-tagged ASF1A (F-ASF1A) (human) (UniProt Q9Y294); assay: co-IP; anti-FLAG IP (first step of the tandem purification) from lysates of transiently transfected Expi293 cells; IP buffer with 1% Triton X-100, 4 °C; elution with 3xFLAG peptide; immunoblotting

Measured: binding

B1: FLAG-tagged CDIN1 (F-CDIN1) (natural protein, UniProt Q9Y2V0 1-281, looked up)
chain: MILTKAQYDEIAQCLVSVPPTRQSLRKLKQRFPSQSQATLLSIFSQEYQKHIKRTHAKHHTSEAIESYYQRYLNGVVKNGAAPVLLDLANEVDYAPSLMARLILERFLQEHEETPPSKSIINSMLRDPSQIPDGVLANQVYQCIVNDCCYGPLVDCIKHAIGHEHEVLLRDLLLEKNLSFLDEDQLRAKGYDKTPDFILQVPVAVEGHIIHWIESKASFGDECSHHAYLHDQFWSYWNRFGPGLVIYWYGFIQELDCNRERGILLKACFPTNIVTLCHSIA
notes: C15orf41); cDNA synthesized by IDT; source: Expi293, transiently transfected, in lysate and purified in complexes (anti-FLAG, Strep-Tactin); not shown: 3xFLAG, N-terminal, kept
binds: [1] | [2] | [3]
